This is one part of the list.

The test system of this assay is S. aureus RN4220. The assay can be described thus: growth inhibition call (relative growth <= 0.2). Conditions: 50 µM.
`C[C@H]1CN([C@@H](C)CO)C(=O)c2cc(NC(=O)Nc3ccc4c(c3)OCO4)ccc2O[C@H]1CN(C)Cc1ccc(-c2ccccc2)cc1`: the growth inhibition call was “inactive”.

As for `C[C@@H]1CN([C@@H](C)CO)C(=O)c2cccc(NC(=O)Nc3ccc(C(F)(F)F)cc3)c2O[C@@H]1CN(C)Cc1ccccc1`, the growth inhibition call is “inactive”.

For the compound `COc1ccc(S(=O)(=O)Nc2ccc3c(c2)CC(=O)N([C@H](C)CO)C[C@H](C)[C@H](CN(C)Cc2ccc(-c4ccccc4)cc2)O3)cc1`, the growth inhibition call is “inactive”.

For the compound `C[C@@H]1CN([C@H](C)CO)C(=O)c2cc(C#CC3(O)CCCC3)cnc2O[C@@H]1CN(C)S(=O)(=O)c1cccc(F)c1`, the growth inhibition call is “inactive”.

As to `O=C(C[C@@H]1CC[C@H]2[C@@H](COC[C@@H](O)CN2C(=O)c2ccncc2)O1)NCc1ccc(-c2ccccc2)cc1`, the growth inhibition call is “inactive”.

Turning to `Cc1noc(C)c1S(=O)(=O)Nc1ccc2c(c1)C(=O)N([C@H](C)CO)C[C@@H](C)[C@H](CN(C)Cc1ccc(C(F)(F)F)cc1)OCCCC[C@@H](C)O2`, the growth inhibition call is “inactive”.

Turning to `COc1ccc(NC(=O)N(C)C[C@H]2OCCCC[C@H](C)Oc3ccc(NC(=O)c4ccncc4)cc3C(=O)N([C@@H](C)CO)C[C@H]2C)cc1`, the growth inhibition call was “inactive”.

On to `C[C@@H]1CCCCO[C@@H](CN(C)C(=O)Nc2ccccc2)[C@H](C)CN([C@@H](C)CO)C(=O)c2cc(NS(=O)(=O)c3ccc(F)cc3)ccc2O1`, for which the growth inhibition call is “inactive”.

With `C[C@@H]1CN([C@H](C)CO)C(=O)c2cc(NC(=O)Cc3ccccc3)ccc2O[C@@H](C)CCCCO[C@H]1CN(C)Cc1ccc(C(=O)O)cc1`, the growth inhibition call is “inactive”.

Turning to `C[C@H](CO)N1C[C@H](C)[C@H](CN(C)Cc2cccc(C(F)(F)F)c2)OCc2ccccc2-c2ccccc2C1=O`, the growth inhibition call is “inactive”.

On to `COC(=O)NCCOc1nc(N(C)C)nc(N(C)C)n1`, for which the growth inhibition call was “inactive”.

As for `C[C@@H]1CN([C@@H](C)CO)C(=O)c2cccc(NC(=O)NC3CCCCC3)c2O[C@@H]1CN(C)Cc1ccc(Cl)c(Cl)c1`, the growth inhibition call was “inactive”.

On to `Cc1noc(C)c1S(=O)(=O)N(C)C[C@H]1Oc2ccc(NC(=O)CCCN(C)C)cc2C(=O)N([C@@H](C)CO)C[C@H]1C`, for which the growth inhibition call is “inactive”.

With `NC1CCC(N2CCC3(CC2)CC(=O)N(Cc2cc(F)cc(F)c2)C3)CC1` (stereo not given), the growth inhibition call is “inactive”.

As to `NC(=O)CSc1nnc(Cc2cc(=O)[nH]c(=O)[nH]2)n1-c1ccccc1`, the growth inhibition call was “inactive”.

As to `Nc1nc(=O)[nH]cc1Br`, the growth inhibition call is “inactive”.

Turning to `CNC[C@H]1Oc2ccc(NS(=O)(=O)c3cn(C)cn3)cc2CC(=O)N([C@H](C)CO)C[C@@H]1C`, the growth inhibition call is “inactive”.

As to `Cc1noc(C)c1NC(=O)N(C)C[C@@H]1OCCCC[C@@H](C)Oc2ccc(NC(=O)CCCCCC(=O)Nc3ccccc3N)cc2C(=O)N([C@H](C)CO)C[C@@H]1C`, the growth inhibition call was “inactive”.

For `C[C@@H]1CN([C@H](C)CO)C(=O)c2cc(NS(C)(=O)=O)ccc2O[C@H]1CN(C)S(=O)(=O)c1cccs1`, the growth inhibition call was “inactive”.

Take `COc1cccc(S(=O)(=O)Nc2ccc3c(c2)[C@@H]2C[C@H](CC(=O)NCC(F)(F)F)O[C@H](CO)[C@@H]2O3)c1`: the growth inhibition call was “inactive”.

Take `CC(=O)Nc1ccc(S(=O)(=O)Nc2ccc([N+](=O)[O-])cc2)cc1`: the growth inhibition call was “inactive”.

As for `CN(C)C(=N)NCCC[C@H](N)C(=O)O`, the growth inhibition call is “inactive”.

In the case of `COc1ccc(S(=O)(=O)N(C)C[C@@H]2OCCCC[C@H](C)Oc3ccc(NS(C)(=O)=O)cc3C(=O)N([C@H](C)CO)C[C@H]2C)cc1`, the growth inhibition call was “inactive”.

On to `COC(=O)[C@]12CCC(C)(C)C[C@H]1[C@H]1C(=O)C=C3[C@@]4(C)C=C(C#N)C(=O)C(C)(C)[C@@H]4CC[C@@]3(C)[C@]1(C)CC2`, for which the growth inhibition call was “inactive”.

As for `C[C@@H]1CN([C@@H](C)CO)S(=O)(=O)c2ccc(-c3cncnc3)cc2O[C@H]1CN(C)C(=O)Cc1cccnc1`, the growth inhibition call is “inactive”.
